PubChem BioAssay AID1240 (Sanford-Burnham Center for Chemical Genomics, 2008)
About 800 (1.6%) of roughly 50,000 compounds showed an effect of 50% or more. This is one part of the list.

Each molecule was assayed against Bcl-2-like protein 10 (Homo sapiens) (UniProt Q9HD36) (assay: TR3 peptide-Bcl-B binding displacers, biochemical primary FP assay, phenotype converters (AID 1240;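 further: 0% = Bcl-B with tracer peptide and DMSO and 100% = tracer peptide lacking Bcl-B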)). Conditions: GST-Bcl-B / FITC-TR3 peptide fluorescence polarization; stronger effect = higher value; compound at 3.75 mg/L.
Chain of UniProt Q9HD36 (Q9HD36 whole entry, looked up): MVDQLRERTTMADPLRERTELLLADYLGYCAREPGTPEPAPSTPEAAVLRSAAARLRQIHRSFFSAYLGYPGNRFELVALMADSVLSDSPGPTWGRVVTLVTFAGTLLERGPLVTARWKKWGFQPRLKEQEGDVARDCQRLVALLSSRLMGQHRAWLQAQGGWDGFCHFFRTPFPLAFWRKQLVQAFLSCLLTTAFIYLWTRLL

| Structure (SMILES) | displacement [%] |
| --- | --- |
| CC(=O)NS(=O)(=O)c1ccc(NC(=O)Nc2ccc(Cl)c(Cl)c2)cc1 | 3.4 |
| COc1cc([N+](=O)[O-])cc(C=C2C(=O)N(C)C(=O)N(C)C2=O)c1O | -2.5 |
| COc1ccccc1N1CCN(C2CC(=O)N(C)C2=O)CC1 (stereo unspecified) | -7.9 |
| COc1ccc2c(c1)c1c3n2CCN(C(=S)Nc2ccccc2)C3CCC1 (stereo unspecified) | 6.7 |
| Cc1ccc(C)c(S(=O)(=O)n2cnc3ccccc32)c1 | 4.5 |
| COc1ccc2c(c1OC)C(=O)N1N=C(c3ccc(I)cc3)CC21 (stereo unspecified) | 1.3 |
| O=S(=O)(c1ccc(Oc2ccccc2)cc1)N1CCCCCC1 | -8.7 |
| O=C(Nc1ccccc1F)c1ccc2nccnc2c1 | 2.8 |
| Cc1ccc(-c2[nH]n3c(=O)c4c(nc3c2C)CCS4)cc1 | -0.6 |
| CCOC(=O)c1c(N)sc(C(=O)Nc2ccc(C)cc2C)c1C | -2.7 |
| Cc1ccccc1NCC(=O)N/N=C\c1ccc(-c2cccc(Cl)c2)o1 | 5.1 |
| NC(=O)c1ccc(Sc2nc3ccccc3s2)c([N+](=O)[O-])c1 | 1.4 |
| CCOC(=O)Cc1csc(NC(=O)c2ccco2)n1 | -5 |
| Cc1ccc(C(=O)Nc2ccc(NC(=O)c3cccc(C)c3)cc2)cc1 | 14 |
| CCCOc1ccc(/C=C2\SC(=S)N(NC(=O)c3ccncc3)C2=O)cc1OC | -2.9 |
| CCOC(=O)C1=C(C)NC(C)=C(C(=O)OC)C1c1ccc(C)cc1 (stereo unspecified) | 5.2 |
| COc1cc2c(cc1OC)C(Nn1cnnc1)=NC1(CCCC1)C2 | -5.2 |
| CCOc1ccc(/C=C2/C(=O)NC(=O)N(c3ccc(OC)cc3)C2=O)c(OCC)c1 | -4 |
| NC(=O)CN(c1ccc(F)cc1)S(=O)(=O)c1ccccc1 | 0.8 |
| COC(=O)c1ccc(NC(=O)Cc2ccccc2[N+](=O)[O-])cc1 | -2.9 |
| CC(=O)CC(=O)Nc1ccc(C)c(Cl)c1 | -2.4 |
| CN1C(=O)C(=O)/C(=C(\O)c2ccc(Cl)cc2)C1c1cccc([N+](=O)[O-])c1 (stereo unspecified) | -3.3 |
| O=C(CN1C(=O)c2ccccc2C1=O)Nc1ccc(Cl)cn1 | 0.4 |

| Structure (SMILES) | displacement [%] |
| --- | --- |
| O=C1CC(NC2CCCCC2)C(=O)N1c1ccc(I)cc1 (stereo unspecified) | -3.6 |
| Cc1ccc2c(NC(=O)c3ccccc3F)cccc2n1 | 2.3 |
| O=[N+]([O-])c1ccc(Nc2nc(-c3ccccc3)cc(-c3ccccc3)n2)cc1 | 16.8 |
| CCOC(=O)c1c(-c2ccc(C)cc2)csc1NC(=O)c1ccccc1F | 13.2 |
| O=C(NC(=S)Nc1cccc(-c2nc3ccccc3s2)c1)c1ccco1 | 9.7 |
| CCCOC(=O)c1ccc(NC(=O)c2cccc([N+](=O)[O-])c2C)cc1 | -5.3 |
| COc1ccc(NC(=O)c2ccccc2NC(=O)c2ccc(C)cc2)cc1 | -10.2 |
| O=C(N/N=C\c1c(F)cccc1Cl)c1cnccn1 | -8 |
| COc1cc(/C=N/Nc2nc(N3CCOCC3)nc(N3CCOCC3)n2)cc(Cl)c1O | 8.7 |
| CCn1c2c(c3cc(C4CCCCC4)ccc31)CCCC2O (stereo unspecified) | 2.5 |
| O=C(COC(=O)c1ccccc1)c1ccc2c(c1)OCCO2 | -12.1 |
| O=C(c1cccc(F)c1)N1CCN(Cc2ccc(C(F)(F)F)cc2)CC1 | 1.9 |
| Cc1ccc(C(=O)N2CCN(c3ccc(F)cc3)CC2)cc1C | 4.5 |
| COc1ccccc1/C=c1\sc2nc(-c3ccc(C)cc3)nn2c1=O | 61.7 |
| COc1ccc(C2=NN(C(=O)CCC(=O)O)C(c3cccs3)C2)cc1 (stereo unspecified) | 15.9 |
| N#C/C(=C\c1ccc(N2CCOCC2)o1)C(=O)NCC1CCCO1 (stereo unspecified) | -102 |
| CCc1ccc(S(=O)(=O)Nc2cc(-c3c(O)ccc4ccccc34)c(O)c3ccccc23)cc1 | 7.1 |
| O=C(CC1Sc2ccc(C(F)(F)F)cc2NC1=O)Nc1ccccc1F (stereo unspecified) | -24.4 |
| COC(=O)CSc1nc(N)c2c3c(sc2n1)CC(C(C)(C)C)CC3 (stereo unspecified) | 4.1 |
| O=C1c2ccccc2C(=O)N1CCc1nc2ccccc2c(=O)n1Cc1ccccc1 | -3.6 |
| CC(C)NC(=O)C12CC3CCC(CC(C3)C1)C2 | 15.1 |
| C=CCN1C(=O)/C(=C/c2ccc(C)cc2)SC1=S | 9 |
| Cc1ccccc1C(=O)NNC(=S)Nc1ccccc1 | -24.2 |

| Structure (SMILES) | displacement [%] |
| --- | --- |
| O=C(N/N=C\c1cccc(O)c1)C(=O)N/N=C/c1cccc(O)c1 | -10.8 |
| CC(C)OC(=O)/C=C(\N)c1ccccc1 | 14.6 |
| CC(=O)CC(=O)NCCc1ccccc1 | -2.7 |
| Cc1ccc(NC(=O)c2ccncc2)cc1 | -5.8 |
| CCOc1ccc(NC(=O)c2cccc(F)c2)c([N+](=O)[O-])c1 | 3.3 |
| O=C1/C(=C\c2cccnc2)SC(=S)N1c1cccc(C(F)(F)F)c1 | -6 |
| COC(=O)c1c(O)ccc(Oc2ccccc2)c1C(=O)OC | -3.2 |
| COC(=O)C1=C(C(=O)OC)SC(=C2C(=S)C(C)(C)N(C(=O)Cc3ccccc3)c3ccc(OC)cc32)S1 | -6.7 |
| CC(C)c1ccc(N2C(=O)NC(=O)/C(=C/c3ccc([N+](=O)[O-])o3)C2=O)cc1 | -7.9 |
| O=[N+]([O-])c1ccc(NS(=O)(=O)c2cccc3cccnc23)cc1 | 1 |
| Cc1cc(C)c(S(=O)(=O)Nc2cc(Br)c(O)c3ccccc23)c(C)c1 | 37 |
| Cc1c(NC(=O)COc2ccc(F)cc2)c(=O)n(-c2ccccc2)n1C | 1.4 |
| CC1C(c2ccc(Cl)cc2)NC(c2ccc(Cl)cc2)C(C)C1(O)c1ccc(F)cc1 (stereo unspecified) | -4.8 |
| O=[N+]([O-])c1cc2c(cc1/C=N/n1cnnc1)OCO2 | 2.6 |
| NNC(=O)/C(=C/c1ccc2c(c1)OCO2)NC(=O)c1ccccc1 | -2.7 |
| COc1ccccc1C(=O)N/N=C(\C)c1ccc(C)o1 | -23.6 |
| Cc1ccc(C2Nc3ccccc3NC3=C2C(=O)CC(c2ccccc2)C3)o1 (stereo unspecified) | 33.6 |
| CCC/C(O)=C1/C(=O)CC(C)(C)CC1=NCCCCCCN=C1CC(C)(C)CC(=O)/C1=C(/O)CCC | 2.6 |
| C=CCc1cccc2cc(C(=O)NCCc3ccccc3)c(=O)oc12 | 8.5 |
| COc1cccc(NC(=O)C2CC(=O)N=C(N)S2)c1 (stereo unspecified) | 12.9 |
| CCC(C)c1ccc(OCC(=O)Nc2ccc3c(c2)C(=O)N(c2cccc(C)c2C)C3=O)cc1 (stereo unspecified) | -26.3 |
| O=C(O)C1CCCCC1C(=O)Nc1nc2ccc(Br)cc2s1 (stereo unspecified) | -9.7 |
| O=C(CCCOc1ccccc1)Nc1ccccc1C(F)(F)F | -8.2 |

| Structure (SMILES) | displacement [%] |
| --- | --- |
| O=[N+]([O-])c1ccc(N2CCCCC2)cc1NCCCO | 4.2 |
| O=C(CSc1ncc(-c2ccccc2)[nH]1)Nc1ccc(Br)cc1 | 7.7 |
| O=C1CN(S(=O)(=O)CCOc2ccccc2)CC(=O)N1CCOc1ccccc1 | 4 |
| O=C1N=c2ccccc2=C1c1sc(=S)n(-c2ccc(F)cc2)c1O | 14.2 |
| Cc1ccc(/C=N/N2C(=O)c3ccccc3C2=O)s1 | 1.2 |
| COc1ccc(N(CC(=O)Nc2cccc(Br)c2)S(C)(=O)=O)c(OC)c1 | -5.7 |
| CCCS(=O)(=O)c1c(S(=O)(=O)CCC)c2c(N)cccn2c1C(=O)OC | 31.2 |
| COc1cc([N+](=O)[O-])ccc1N=S(C)C | 13.5 |
| CN1c2ccccc2C(C)(C)C12C=Cc1cc(C=O)ccc1O2 (stereo unspecified) | 6.3 |
| CC(C)C(=O)Nc1sc2c(c1C(=O)Nc1ccc(Br)cc1)CCC2 | -2.7 |
| CC(=O)N(c1ccccc1Cl)S(=O)(=O)c1ccc(Cl)cc1 | 15.9 |
| O=[N+]([O-])c1ccccc1NCCNS(=O)(=O)c1ccc(Cl)cc1 | 6.9 |
| CCOC(=O)Cn1c(C(F)(F)F)nc2ccccc21 | -0.8 |
| COc1cccc(OCCOc2ccccc2/C=C2/SC(=S)NC2=O)c1 | 17.2 |
| COc1ccc(OCCCN2CCCC2)cc1 | 11.6 |
| CCC(CC)NCc1ccccc1OC | 5.2 |
| Cc1c(Cl)c([N+](=O)[O-])nn1CC(=O)N1CCN(C)CC1 | -11.3 |
| COc1ccc(/C=C2\SC(=S)N(CCC(=O)Nc3ccccc3C)C2=O)cc1OC | 15.4 |
| Cc1cc(OCC(=O)Nc2cc(Cl)ccc2C)ccc1Cl | 12.7 |
| COC(=O)Oc1ccc2c(=O)c(-c3ccccc3OC)coc2c1 | -5.1 |
| O=C(O)CCCNC(=O)c1ccccc1NC(=O)c1ccccc1 | -3.9 |
| Clc1ccc(COCc2nc3ccccc3n2Cc2ccc(Cl)cc2)cc1 | 3.4 |
| COc1cccc(C2=NN(C(=O)COc3ccccc3)C(O)(C(F)(F)F)C2)c1 (stereo unspecified) | 0.7 |

| Structure (SMILES) | displacement [%] |
| --- | --- |
| CCOc1cccc(C(=O)Nc2nnc(COc3ccc(Br)cc3)s2)c1 | 5.4 |
| O=C(O)c1ccc(Oc2ccc(S(=O)(=O)c3ccc(Cl)cc3)cc2)cc1 | 0.6 |
| O=C(O)CCn1c(SCCc2ccccc2)nc2ccccc21 | 3.2 |
| Cc1ccc(N2C(=O)C3C(C2=O)C2C=CC3C23CC3)cc1 (stereo unspecified) | 7.8 |
| CCOC(=O)c1[nH]c2c(CC)cccc2c1CCN1C(=O)c2ccccc2C1=O | 25.7 |
| O=[N+]([O-])c1ccc(OCCS(=O)(=O)c2ccccc2)c(OCCS(=O)(=O)c2ccccc2)c1 | 6.6 |
| COC(=O)C1=C(C)NC(=O)N(C(C)=O)C1c1cccc([N+](=O)[O-])c1 (stereo unspecified) | 8.6 |
| CC1(C)CC(=O)c2sc(NC(=O)CN3CCCCC3)nc2C1 | 1.7 |
| CCOc1ccc2c(=O)c(-c3ccccc3OC)coc2c1 | 12.8 |
| C=CCn1cc(F)c(=O)n(CC(C)C)c1=O | -19.5 |
| Cc1onc(-c2ccccc2Cl)c1C(=O)N1CCC(C(O)(c2ccccc2)c2ccccc2)CC1 | -4.1 |
| O=C(Nc1ccc2c(c1)OCCO2)c1ccccc1[N+](=O)[O-] | 1.6 |
| O=C(N/N=C/c1ccc(Br)cc1)c1cc(C23CC4CC(CC(C4)C2)C3)[nH]n1 | -6.6 |
| Cc1c(NC(=O)c2ccco2)cccc1-c1nc2ncccc2o1 | -2.5 |
| Cc1[nH]c2ccccc2c1C(=O)/C=C/c1ccc2c(c1)OCO2 | 7.7 |
| CC(NC(=O)C(=O)NC(C)C1COc2ccccc2O1)C1COc2ccccc2O1 (stereo unspecified) | -0.6 |
| O=[N+]([O-])c1ccc(OCc2ccccc2Cl)cc1 | -9 |
| Cc1nc2ccccc2n1CCC(C)C | 13.2 |
| O=C(Cc1ccc([N+](=O)[O-])cc1)N/N=C/c1cccnc1 | 3.9 |
